# Experimental data taken from the supplement of paper PMC10037445.
# Whole data set: some 2,900 compounds, median “NF-kB SEAP reporter activity, fold change vs agonist alone” near 0.99, cut for the highest 2% near 2.6. The list shows a part of the results.
# What was measured:
# [1] = system: RAW-Dual; test: NF-kB SEAP reporter activity, fold change vs agonist alone; higher = enhanced NF-kB activity; conditions: library stock concentration (final ~1000-fold dilution): 10 mM
# Method in brief: (§1)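 Supernatant from RAW-Dual macrophages was read after 20 hours for IRF by QuantiLuc luminescence and for NF-κB by QuantiBlue absorbance at 620 nm. The cells (50,000 cells/well in DMEM, 384-well plates, 37 °C, 5% CO2) had received 50 nL of library stock by pin tool and, 1 h later, a PRR agonist. Reporter activity is expressed relative to agonist-alone wells as fold change, and wells were flagged cytotoxic if IncuCyte confluency was under 70% of agonist controls in both mask sets.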
# [2] = system: RAW-Dual; test: NF-kB SEAP reporter activity, fold change vs agonist alone; cytotoxicity flag (confluency mask): not cytotoxic; higher = enhanced NF-kB activity
# Method in brief: as §1
# [3] = system: RAW-Dual; test: NF-kB SEAP reporter activity, fold change vs agonist alone; cytotoxicity flag (confluency mask): cytotoxic (confluency <70% of control); higher = enhanced NF-kB activity
# Method in brief: as §1
# [4] = cytotoxicity flag (confluency mask): not cytotoxic, agonist: Imiquimod (TLR7) […]
# [5] = cytotoxicity flag (confluency mask): not cytotoxic, agonist: MPLA (TLR4) […]
# [6] = agonist: ODN 1826 (TLR9) 0.5 ug/mL
# [7] = agonist: Pam2CSK4 (TLR2/6) 0.1 ug/mL
# [8] = agonist: Pam3CSK4 (TLR2/1) 0.1 ug/mL
smiles,measurement,setting,value
CN1C2CCC1CC(=O)C2,NF-kB SEAP reporter activity,[1]; [4],1.66
same,NF-kB SEAP reporter activity,[1]; [5],1.16
CN1C2CCC1CC(=O)C2 (library stock concentration (final ~1000-fold dilution): 10 mM),NF-kB SEAP reporter activity,[2]; agonist: LPS (TLR4) 0.1 ug/mL,0.911
same,NF-kB SEAP reporter activity,[2]; [6],1.6
same,NF-kB SEAP reporter activity,[2]; [7],1
same,NF-kB SEAP reporter activity,[2]; [8],1.54
CN1C2CCC1CC(OC(=O)C(CO)c1ccccc1)C2 (centres undefined) (library stock concentration (final ~1000-fold dilution): 10 mM),NF-kB SEAP reporter activity,[2]; agonist: LPS (TLR4) 0.1 ug/mL,1.05
same,NF-kB SEAP reporter activity,[2]; [6],0.888
same,NF-kB SEAP reporter activity,[2]; [7],0.983
same,NF-kB SEAP reporter activity,[2]; [8],0.972
CN1C2CCC1CC(OC(=O)C(CO)c1ccccc1)C2 (centres undefined),NF-kB SEAP reporter activity,[1]; [4],0.848
same,NF-kB SEAP reporter activity,[1]; [5],0.97
Cl.O=C(O)Cc1c[nH]cn1 (library stock concentration (final ~1000-fold dilution): 10 mM),NF-kB SEAP reporter activity,[2]; agonist: LPS (TLR4) 0.1 ug/mL,1.34
same,NF-kB SEAP reporter activity,[2]; [6],0.991
same,NF-kB SEAP reporter activity,[2]; [7],0.973
same,NF-kB SEAP reporter activity,[2]; [8],0.728
Cl.O=C(O)Cc1c[nH]cn1,NF-kB SEAP reporter activity,[1]; [4],0.935
same,NF-kB SEAP reporter activity,[1]; [5],1.05
CN1CCN(c2nc3ccccc3nc2Cl)CC1,NF-kB SEAP reporter activity,[1]; [4],0.895
same,NF-kB SEAP reporter activity,[1]; [5],0.911
CN1CCN(c2nc3ccccc3nc2Cl)CC1 (library stock concentration (final ~1000-fold dilution): 10 mM),NF-kB SEAP reporter activity,[2]; agonist: LPS (TLR4) 0.1 ug/mL,0.814
same,NF-kB SEAP reporter activity,[2]; [6],0.702
same,NF-kB SEAP reporter activity,[2]; [7],0.784
same,NF-kB SEAP reporter activity,[2]; [8],0.902
CCN1CC2(OC(=O)c3ccccc3NC(C)=O)CCC(OC)C34C1C(CC23)C1(O)CC(OC)C2CC4C1(O)C2OC (centres undefined),NF-kB SEAP reporter activity,[1]; [4],0.95
same,NF-kB SEAP reporter activity,[1]; [5],1.06
CCN1CC2(OC(=O)c3ccccc3NC(C)=O)CCC(OC)C34C1C(CC23)C1(O)CC(OC)C2CC4C1(O)C2OC (centres undefined) (library stock concentration (final ~1000-fold dilution): 10 mM),NF-kB SEAP reporter activity,[2]; agonist: LPS (TLR4) 0.1 ug/mL,0.919
same,NF-kB SEAP reporter activity,[2]; [6],0.941
same,NF-kB SEAP reporter activity,[2]; [7],1.19
same,NF-kB SEAP reporter activity,[2]; [8],1.06
COc1cc2c(cc1OC)C13CCN4CC5=CCOC6CC(=O)N2C1C6C5CC43.COc1cc2c(cc1OC)C13CCN4CC5=CCOC6CC(=O)N2C1C6C5CC43.O.O.O.O.O.O.O.O=S(=O)(O)O (centres undefined),NF-kB SEAP reporter activity,[1]; [4],0.935
same,NF-kB SEAP reporter activity,[1]; [5],0.999
COc1cc2c(cc1OC)C13CCN4CC5=CCOC6CC(=O)N2C1C6C5CC43.COc1cc2c(cc1OC)C13CCN4CC5=CCOC6CC(=O)N2C1C6C5CC43.O.O.O.O.O.O.O.O=S(=O)(O)O (centres undefined) (library stock concentration (final ~1000-fold dilution): 10 mM),NF-kB SEAP reporter activity,[2]; agonist: LPS (TLR4) 0.1 ug/mL,0.96
same,NF-kB SEAP reporter activity,[2]; [6],1.07
same,NF-kB SEAP reporter activity,[2]; [7],1.01
same,NF-kB SEAP reporter activity,[2]; [8],1.04
C/C(O)=C(\C#N)C(=O)Nc1cc(Br)ccc1Br,NF-kB SEAP reporter activity,[1]; [4],0.829
same,NF-kB SEAP reporter activity,[1]; [5],1.03
C/C(O)=C(\C#N)C(=O)Nc1cc(Br)ccc1Br (library stock concentration (final ~1000-fold dilution): 10 mM),NF-kB SEAP reporter activity,[2]; agonist: LPS (TLR4) 0.1 ug/mL,1.11
same,NF-kB SEAP reporter activity,[2]; [6],1
same,NF-kB SEAP reporter activity,[2]; [7],1.11
same,NF-kB SEAP reporter activity,[2]; [8],0.974
Cc1ccccc1-n1c(Cn2ncc3c(N)ncnc32)nc2cccc(C)c2c1=O (library stock concentration (final ~1000-fold dilution): 10 mM),NF-kB SEAP reporter activity,[2]; agonist: LPS (TLR4) 0.1 ug/mL,0.522
same,NF-kB SEAP reporter activity,[2]; [6],0.674
same,NF-kB SEAP reporter activity,[2]; [7],0.581
same,NF-kB SEAP reporter activity,[2]; [8],0.613
Cc1ccccc1-n1c(Cn2ncc3c(N)ncnc32)nc2cccc(C)c2c1=O,NF-kB SEAP reporter activity,[1]; [4],0.723
same,NF-kB SEAP reporter activity,[1]; [5],0.688
COc1ccc(CC2NCC(O)C2OC(C)=O)cc1 (centres undefined) (library stock concentration (final ~1000-fold dilution): 10 mM),NF-kB SEAP reporter activity,[3]; agonist: LPS (TLR4) 0.1 ug/mL,0.216
same,NF-kB SEAP reporter activity,[3]; [6],0.171
same,NF-kB SEAP reporter activity,[3]; [7],0.0635
same,NF-kB SEAP reporter activity,[3]; [8],0.145
COc1ccc(CC2NCC(O)C2OC(C)=O)cc1 (centres undefined),NF-kB SEAP reporter activity,"[1]; cytotoxicity flag (confluency mask): cytotoxic (confluency <70% of control), agonist: Imiquimod (TLR7) […]",0.133
same,NF-kB SEAP reporter activity,"[1]; cytotoxicity flag (confluency mask): cytotoxic (confluency <70% of control), agonist: MPLA (TLR4) […]",0.231
CCC1(C)CC(=O)NC(=O)C1,NF-kB SEAP reporter activity,[1]; [4],0.906
same,NF-kB SEAP reporter activity,[1]; [5],1.07
CCC1(C)CC(=O)NC(=O)C1 (library stock concentration (final ~1000-fold dilution): 10 mM),NF-kB SEAP reporter activity,[2]; agonist: LPS (TLR4) 0.1 ug/mL,1.11
same,NF-kB SEAP reporter activity,[2]; [6],0.893
same,NF-kB SEAP reporter activity,[2]; [7],1.1
same,NF-kB SEAP reporter activity,[2]; [8],1.03
COc1cc2c(cc1O)CC1c3c(cc(O)c(OC)c3-2)CCN1C (centres undefined) (library stock concentration (final ~1000-fold dilution): 10 mM),NF-kB SEAP reporter activity,[2]; agonist: LPS (TLR4) 0.1 ug/mL,1.04
same,NF-kB SEAP reporter activity,[2]; [6],0.815
same,NF-kB SEAP reporter activity,[2]; [7],1.1
same,NF-kB SEAP reporter activity,[2]; [8],1.1
COc1cc2c(cc1O)CC1c3c(cc(O)c(OC)c3-2)CCN1C (centres undefined),NF-kB SEAP reporter activity,[1]; [4],0.85
same,NF-kB SEAP reporter activity,[1]; [5],0.895
Cc1sc2c(c1C)C(c1ccc(Cl)cc1)=NC(CC(=O)Nc1ccc(O)cc1)c1nnc(C)n1-2 (centres undefined) (library stock concentration (final ~1000-fold dilution): 10 mM),NF-kB SEAP reporter activity,[2]; agonist: LPS (TLR4) 0.1 ug/mL,3.19
COc1cc(OC)c(OC)cc1C=O,NF-kB SEAP reporter activity,[1]; [4],0.908
same,NF-kB SEAP reporter activity,[1]; [5],1.01
